# In PubChem BioAssay AID504339 (National Center for Advancing Translational Sciences (NCATS), 2011):
# Screen size: about 390,000 compounds; about 17,000 (4.4%) were called active. The shares of active, inactive and inconclusive entries below differ from those in the screen. Calls come from the whole dose curve; as a rule, active = well fitted inhibition curve with a large enough effect; inconclusive = small, poorly fitted or top-dose-only effect; inactive = no such curve, though single readings can be large or run the other way. Potencies beside an inconclusive call are fits to weak or partial responses and may not hold up.
# Target: Lysine-specific demethylase 4A (Homo sapiens) (UniProt O75164)
# Assay: qHTS Assay for Inhibitors of JMJD2A-Tudor Domain; note: nearly all actives have a fitted effect of over 50% in size
# Settings: AlphaScreen JMJD2A-Tudor / H3K4me3 peptide binding; activity change, negative = inhibition: at 114 µM (top of the series)
# % is set by controls: 0 for no effect and ±100 for the full control effect; potency is the fitted concentration of half-maximal effect; tags give direction and shape of the fitted curve.
# Sequence of UniProt O75164 (O75164 whole entry, looked up, the tested form may be a part): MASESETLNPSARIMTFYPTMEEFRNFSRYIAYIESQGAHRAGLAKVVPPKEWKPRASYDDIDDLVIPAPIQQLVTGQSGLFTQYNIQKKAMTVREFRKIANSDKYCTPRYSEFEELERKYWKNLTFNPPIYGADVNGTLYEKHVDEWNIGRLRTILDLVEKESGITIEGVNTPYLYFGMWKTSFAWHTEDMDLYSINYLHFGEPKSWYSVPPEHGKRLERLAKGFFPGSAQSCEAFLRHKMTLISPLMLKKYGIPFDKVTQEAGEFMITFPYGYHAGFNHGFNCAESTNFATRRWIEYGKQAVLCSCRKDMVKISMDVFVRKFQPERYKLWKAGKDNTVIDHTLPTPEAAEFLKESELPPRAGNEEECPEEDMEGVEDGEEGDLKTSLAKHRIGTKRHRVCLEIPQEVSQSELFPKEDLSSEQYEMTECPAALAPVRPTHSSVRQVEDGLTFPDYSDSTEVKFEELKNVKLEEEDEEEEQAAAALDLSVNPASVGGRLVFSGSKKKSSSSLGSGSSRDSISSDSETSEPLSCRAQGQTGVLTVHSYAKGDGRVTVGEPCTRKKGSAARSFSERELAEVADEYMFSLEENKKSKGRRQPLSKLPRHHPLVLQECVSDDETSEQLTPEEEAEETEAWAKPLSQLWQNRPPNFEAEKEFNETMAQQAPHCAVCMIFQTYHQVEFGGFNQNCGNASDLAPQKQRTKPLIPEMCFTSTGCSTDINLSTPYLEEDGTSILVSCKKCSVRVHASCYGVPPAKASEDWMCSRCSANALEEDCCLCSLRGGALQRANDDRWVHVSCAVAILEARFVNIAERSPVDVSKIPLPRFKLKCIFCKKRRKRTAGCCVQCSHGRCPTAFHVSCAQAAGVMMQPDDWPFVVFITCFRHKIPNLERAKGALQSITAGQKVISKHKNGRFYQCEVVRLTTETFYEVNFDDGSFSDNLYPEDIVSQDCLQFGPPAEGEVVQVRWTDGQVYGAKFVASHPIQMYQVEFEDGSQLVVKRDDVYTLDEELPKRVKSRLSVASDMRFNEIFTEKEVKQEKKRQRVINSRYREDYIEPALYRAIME
SMILES,Potency,"activity change, negative = inhibition"
COc1ccc(CNC(=O)C[C@H]2C[C@H](C(=O)N3CCOCC3)[C@@]3(CCC4CCCC4)c4[nH]c5ccc(Cl)cc5c4CCN3C2=O)cc1OC,"inconclusive: 20 µM [inhibitor, full curve]",–
O=[N+]([O-])c1ccc(CN2CCN(Cc3c[nH]c4ccccc34)CC2)cc1,active: 7.94 µM,–
O=C(Nc1ccccc1F)c1ccc([N+](=O)[O-])s1,"inconclusive: 79.4 µM [inhibitor, partial curve]",–
Clc1ccc(Nc2ccc(NCc3ccccc3)nn2)cc1,"inconclusive: 56.2 µM [inhibitor, partial curve]",–
CCC(C)(C)NC(=S)Nc1ccccc1C,–,inactive: -16.1%
O=C(CSCc1ccccc1Cl)NNC(=S)Nc1ccccc1,"inconclusive: 70.8 µM [inhibitor, partial curve, poor fit]",–
O=[N+]([O-])c1cccc(-c2nnc(-c3ccc4c(c3)OCO4)o2)c1,"inconclusive: 89.1 µM [inhibitor, single point]",–
C=CCN=C1CC(C)(C)C(C(=O)OC)C(O)=C1C(=O)CCC (configuration not stated),–,inactive: -0%
Cc1cc(Cl)ccc1Oc1nc(-c2ccc(F)cc2)ccc1C#N,"inconclusive: 39.8 µM [inhibitor, single point]",–
Cc1ccc(C)c(N2CCN(C(=O)Cn3c(=O)c4cccn4c4ccc(F)cc43)CC2)c1,–,inactive: -21.4%
CC(CC1C(C#N)=C(N)SC(N)=C1C#N)c1ccccc1 (configuration not stated),active: 56.2 µM,–
Cc1ccc(CC(=O)N2CCN(c3ccc([N+](=O)[O-])cc3)CC2)cc1,"inconclusive: 7.94 µM [inhibitor, partial curve, poor fit]",–
COc1ccc(NC(=O)CN(C)C(=O)c2ccc(N3CCOCC3)c([N+](=O)[O-])c2)cc1,–,inactive: -21.2%
C[C@@H]1CCCCCCCCC(=O)OCCN[C@H](C)CCCCCCCCC(=O)OCCN[C@H](C)CCCCCCCCC(=O)OCCN1,–,inactive: -34.5%
CC(=O)Nc1nonc1-c1nnc(SCc2ccc(F)cc2)n1C,–,inactive: 8.61%
O=C(Nc1ccc2c(c1)OCO2)C1CCN(S(=O)(=O)c2cccs2)CC1,"inconclusive: 50.1 µM [inhibitor, partial curve]",–
N#Cc1c(NCCO)nc(NCc2ccccc2)c2c1CCN(Cc1ccccc1)C2,"inconclusive: 56.2 µM [inhibitor, partial curve]",–
Cc1cccc(OCc2nc(C#N)c(NCc3ccccc3Cl)o2)c1,"inconclusive: 35.5 µM [inhibitor, partial curve]",–
CC(=O)c1cccc(-n2nnnc2SCC(=O)Nc2cc(C)on2)c1,–,inactive: -3.52%
O=C(Oc1ccc2ccc(O)cc2c1)C1CCCCC1,"inconclusive: 5.62 µM [inhibitor, single point]",–
Cc1ccccc1NC(=O)CN1C(=O)c2cccnc2Oc2ccc(Cl)cc21,–,inactive: -13.2%
Clc1ccc(-c2csc(=Nc3ccccc3)n2Cc2ccc3c(c2)OCO3)cc1,"inconclusive: 31.6 µM [inhibitor, partial curve]",–
CCCCN1CCc2[nH]c(=S)[nH]c(=O)c2C1,active: 25.1 µM,–
Cc1ccc(C(=O)/C=C/c2ccc3c(c2)OCCO3)c(O)c1,active: 31.6 µM,–

SMILES,Potency,"activity change, negative = inhibition"
COc1cc(-c2nc(C(=O)NCC3CCCO3)cc3c2[nH]c2ccccc23)cc(OC)c1OC (configuration not stated),"inconclusive: 25.1 µM [inhibitor, full curve, poor fit]",–
CCOc1cc(CNc2ccc(CNc3ncn[nH]3)cc2)ccc1OCc1ccccc1,"inconclusive: 25.1 µM [inhibitor, partial curve]",–
CCCCCCSc1ccc(-c2nc3ccc(C)cn3c2NCc2ccccc2)cc1OC,"inconclusive: 56.2 µM [inhibitor, partial curve]",–
Cn1c(O)c(N=NC(=O)c2ccccc2O)c2ccccc21,"inconclusive: 3.98 µM [inhibitor, single point]",–
CC(C)c1ccc(CNn2cnnc2)cc1,"inconclusive: 17.8 µM [inhibitor, partial curve, poor fit]",–
Cc1c(/C=N/NC(N)=O)c2ccccn2c1C(=O)c1ccc(F)cc1,"inconclusive: 50.1 µM [inhibitor, partial curve]",–
CCOc1ccc(NC(=O)CCC(=O)NNS(=O)(=O)c2ccccc2[N+](=O)[O-])cc1,"inconclusive: 6.31 µM [inhibitor, single point]",–
Cc1cc(C)c2c(c1)-c1c(ssc1=S)C(C)(C)N2C(=O)CSc1nncn1C,"inconclusive: 50.1 µM [inhibitor, partial curve]",–
Cc1ccc(CN(Cc2ccco2)C(=O)COc2c(C)cc(C)cc2C)cc1,–,inactive: 12.2%
O=C(Nc1ccccc1C(=O)O)/C(=C/c1ccc(Cl)cc1Cl)NC(=O)c1ccco1,–,inactive: -11.1%
Oc1ccc(-c2nc3ccccn3c2Nc2ccc3c(c2)OCCO3)cc1,active: 50.1 µM,–
CCn1c(-c2cc(Cl)ccc2OC)n[nH]c1=S,active: 7.08 µM,–
Cc1cc(C)cc(N=c2c([N+](=O)[O-])nn(-c3ccc4c(c3)OCCO4)n2O)c1,"inconclusive: 8.91 µM [inhibitor, full curve]",–
Cc1nc(C(=O)NNC(=O)c2ccccc2)c(C(F)(F)F)o1,"inconclusive: 1.41 µM [inhibitor, full curve, poor fit]",–
COC(=O)c1ccc(N2NC(=O)/C(=C/c3ccc(-c4ccc(Cl)c(C(=O)O)c4)o3)C2=O)cc1,active: 56.2 µM,–
COc1ccc(NCc2nc3ccccc3n2C)cc1,"inconclusive: 56.2 µM [inhibitor, partial curve, poor fit]",–
Cc1cc(=O)oc(C)c1C(=O)NNC(=O)C1(C)CC1Br (configuration not stated),–,inactive: -7.94%
O=C(Cn1cc2c(n1)CCCCC2)NC1CCCCCC1,"inconclusive: 14.1 µM [inhibitor, full curve]",–
CC(C)(C)OC(=O)N/N=C\c1ccc(OC(=O)c2ccco2)cc1,active: 31.6 µM,–
c1ccc(Nc2nc(-c3ccccn3)cs2)cc1,"inconclusive: 15.8 µM [inhibitor, partial curve]",–
C=CCn1c(O)c(N=NC(=S)Nc2cccc(C)c2)c2ccccc21,active: 8.91 µM,–
CCNC(=O)C(=O)N/N=C/c1cc([N+](=O)[O-])ccc1O,active: 14.1 µM,–
Cc1ccc(N2CC(C(=O)Nc3nnc(C)s3)CC2=O)cc1 (configuration not stated),"inconclusive: 89.1 µM [inhibitor, single point]",–
COc1cc(C#Cc2c(-c3cncn3C)n(C)c3ccc(-c4ccc5[nH]ccc5c4)cc23)cc(OC)c1,"inconclusive: 11.2 µM [inhibitor, partial curve]",–

SMILES,Potency,"activity change, negative = inhibition"
Cc1cccc(Nc2nc(N)c([N+](=O)[O-])c(NCc3ccco3)n2)c1,"inconclusive: 31.6 µM [inhibitor, full curve]",–
CCc1ccc(NC(=O)CC2C(=O)N(c3cccc(OC)c3)C(=O)N2Cc2ccco2)cc1 (configuration not stated),–,inactive: -24.1%
N#C/C(=C\c1cccnc1)C(=O)Nc1ccc(C(=O)O)cc1,"inconclusive: 31.6 µM [inhibitor, single point]",–
CCCCNCCCOc1cc(Cl)ccc1Cl,–,inactive: -18.4%
COc1ccccc1Nc1cc2cc(Br)ccc2c(=O)[nH]1,"inconclusive: 79.4 µM [inhibitor, partial curve]",–
CCOC(=O)n1c(=O)n(Cc2cccc(C)c2)c2ccccc21,"inconclusive: 11.2 µM [inhibitor, full curve]",–
OCCN1CCN(c2nc(-c3ccccc3)c3cc(Cl)ccc3n2)CC1,"inconclusive: 89.1 µM [inhibitor, partial curve]",–
Cc1ccc(C(Nc2ccccn2)c2ccc3cccnc3c2O)cc1 (configuration not stated),active: 20 µM,–
CSc1nnc(C2CCCN2)n1C (configuration not stated),"inconclusive: 8.91 µM [inhibitor, full curve, poor fit]",–
Nc1c(C(=O)N2CCCCC2)sc(=S)n1-c1ccccc1,active: 50.1 µM,–
COc1ccc(C2/C(=C(\O)c3ccc4c(c3)OCCO4)C(=O)C(=O)N2Cc2ccco2)c(OC)c1 (configuration not stated),"inconclusive: 89.1 µM [inhibitor, single point]",–
Oc1cc2c(cc1O)CN(C(=S)NCCc1ccc(Cl)cc1)CCC2,active: 44.7 µM,–
COc1ccc(N2CCN(C(CNC(=O)CC(C)C)c3ccc4c(c3)OCO4)CC2)cc1 (configuration not stated),"inconclusive: 56.2 µM [inhibitor, partial curve]",–
Cc1ccc(S(=O)(=O)N2[C@@H](c3cccc(C)c3)C(C(=O)O)=C[C@H]2CC2CCCC2)cc1,–,inactive: -9.42%
O=C(c1ccc(-c2ccccc2)cc1)N1CCN(Cc2ccccn2)CC1,"inconclusive: 79.4 µM [inhibitor, single point]",–
CN(C(=O)CSc1nnc(Nc2ccccc2)s1)c1c(N)n(Cc2ccccc2)c(=O)[nH]c1=O,–,inactive: -15.1% [at 11.4 µM]
Nc1nc(SCC(=O)c2ccc(Oc3ccccc3)cc2)n[nH]1,active: 35.5 µM,–
Cc1ccc(Nc2nnns2)cc1C,"inconclusive: 89.1 µM [inhibitor, single point]",–
OCCNc1nc(Nc2cc(Cl)ccc2OC2CCCC2)nc(N2CCCC2)n1,"inconclusive: 63.1 µM [inhibitor, partial curve]",–
Cc1ccc(S(=O)(=O)Nc2ncccn2)cc1,–,inactive: -6.64%
CCOCCCNC(=O)/C(C#N)=C/c1ccc([N+](=O)[O-])o1,–,inactive: -16%
Cc1cc(=O)[nH]c(/N=C(\N)Nc2cccc3ccccc23)n1,"inconclusive: 79.4 µM [inhibitor, partial curve]",–
Cc1cccc(S(=O)(=O)Nc2cccc(-c3cn4ccsc4n3)c2)c1,"inconclusive: 50.1 µM [inhibitor, partial curve]",–
Cn1c(CNC(=O)C(Cc2ccccc2)NC(=O)c2cccc(F)c2)cc(=O)n(C)c1=O (configuration not stated),–,inactive: -30.1%
